The list shows a part of the results. The list includes weakly bound sequences.

The target of this assay is MaxL homodimer (UniProt P61244). The experiment in a line: universal protein-binding microarray (PBM). The note with it: PBS-based mixture, 10 nM His-tagged protein dimer, 2% milk, 200 ng/uL BSA, 50 ng/uL salmon testes DNA, 0.02% TX-100; detection with Alexa 488 anti-His …; high values mean tight binding; most listed sequences are background and not binding sites; double strand, one strand shown.
UniProt P61244, sequence (P61244 whole entry): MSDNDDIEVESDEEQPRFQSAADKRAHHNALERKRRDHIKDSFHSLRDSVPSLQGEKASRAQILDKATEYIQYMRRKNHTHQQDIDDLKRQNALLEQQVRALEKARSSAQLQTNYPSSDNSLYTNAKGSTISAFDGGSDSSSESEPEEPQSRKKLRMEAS
For the sequence ACGGACAC, the binding signal (normalized occupancy) was determined as 0.0767.

For the sequence ATTTTATC, the binding signal (normalized occupancy) is 0.0774.

CGAGCAGC: the binding signal (normalized occupancy) was 0.0765.

On to CATTGACC, for which the binding signal (normalized occupancy) amounted to 0.085.

Regarding CACGCAAA, the binding signal (normalized occupancy) amounted to 0.0846.

With CGAGATAA, the binding signal (normalized occupancy) was 0.0811.

For the sequence ATACTTTG, the binding signal (normalized occupancy) turned out to be 0.0742.

As for AAGTGTAA, the binding signal (normalized occupancy) is 0.0802.

Take ATAAATAC: the binding signal (normalized occupancy) stood at 0.0803.

Regarding CCACGTAC, the binding signal (normalized occupancy) was 0.0867.

Consider GACGATGC, for which the binding signal (normalized occupancy) came out at 0.0723.

As for AATTTTGA, the binding signal (normalized occupancy) worked out at 0.0693.

With ACAATTCT, the binding signal (normalized occupancy) was determined as 0.0743.

As to AGATGTCG, the binding signal (normalized occupancy) was 0.0787.

Turning to ATTTCGTC, the binding signal (normalized occupancy) was 0.0796.

Regarding CAGCGGAC, the binding signal (normalized occupancy) came to 0.0674.

TCAACCGA: the binding signal (normalized occupancy) amounted to 0.0694.

Take GAATAGTA: the binding signal (normalized occupancy) worked out at 0.0757.

Take AATTAACT: the binding signal (normalized occupancy) worked out at 0.0771.

Turning to ACCCGGGG, the binding signal (normalized occupancy) is 0.0709.

Consider CCCGGGCA, for which the binding signal (normalized occupancy) was determined as 0.0688.

With GATAGACA, the binding signal (normalized occupancy) is 0.0795.

With CTATTGAG, the binding signal (normalized occupancy) came to 0.0738.

On to ACATTACA, for which the binding signal (normalized occupancy) was determined as 0.0879.

For AGTGTCAG, the binding signal (normalized occupancy) is 0.0752.

As for AGTAAGTC, the binding signal (normalized occupancy) came to 0.0741.

Turning to CCACAGGC, the binding signal (normalized occupancy) was 0.0705.

As for CTTGGAGA, the binding signal (normalized occupancy) was found to be 0.0742.

Consider ACCACTGC, for which the binding signal (normalized occupancy) worked out at 0.0776.

In the case of CGGTTTTA, the binding signal (normalized occupancy) stood at 0.0708.

For TGGAGGAA, the binding signal (normalized occupancy) was 0.0776.

For CAGAAACC, the binding signal (normalized occupancy) was found to be 0.0723.

As to AATCTGGA, the binding signal (normalized occupancy) was 0.0747.

In the case of GTAACAAC, the binding signal (normalized occupancy) came to 0.0728.

In the case of CCACGTGC, the binding signal (normalized occupancy) came out at 0.814.

Take ATAGAAGA: the binding signal (normalized occupancy) came out at 0.0761.

For ACTAGACT, the binding signal (normalized occupancy) amounted to 0.07.

In the case of ACAGCAAA, the binding signal (normalized occupancy) was found to be 0.0728.

Take ACAGCCTG: the binding signal (normalized occupancy) is 0.0749.

Take ATAGTTGG: the binding signal (normalized occupancy) turned out to be 0.0739.

As for ATAGATAG, the binding signal (normalized occupancy) was 0.0809.

GCGTTACA: the binding signal (normalized occupancy) was found to be 0.0854.

For the sequence ACAGCTTC, the binding signal (normalized occupancy) is 0.075.

For the sequence CATAGTTA, the binding signal (normalized occupancy) amounted to 0.0781.

For ACTACATG, the binding signal (normalized occupancy) is 0.0893.

For the sequence CTCAAGTC, the binding signal (normalized occupancy) was 0.0771.

AGCACCAT: the binding signal (normalized occupancy) stood at 0.0874.

Take CGAGGGGC: the binding signal (normalized occupancy) was 0.0727.

For AACGAAAA, the binding signal (normalized occupancy) was 0.0748.

Turning to CGGATAGA, the binding signal (normalized occupancy) worked out at 0.072.

Turning to GAAATGTC, the binding signal (normalized occupancy) was 0.073.

Regarding CGGTAAGC, the binding signal (normalized occupancy) came to 0.074.

With AGCGTTTC, the binding signal (normalized occupancy) worked out at 0.077.

With GCAAAGCC, the binding signal (normalized occupancy) was found to be 0.0666.

As to TCTGAACA, the binding signal (normalized occupancy) was determined as 0.0756.

With GTACAGCA, the binding signal (normalized occupancy) was found to be 0.0793.

For ACTACATC, the binding signal (normalized occupancy) is 0.0832.

In the case of AATAACGT, the binding signal (normalized occupancy) turned out to be 0.0823.

CCTGGCGA: the binding signal (normalized occupancy) turned out to be 0.0692.

For GAGTAGCC, the binding signal (normalized occupancy) turned out to be 0.0702.

For the sequence AACTCCGT, the binding signal (normalized occupancy) was 0.0692.

For the sequence CCCAGCGC, the binding signal (normalized occupancy) is 0.0697.

With GTCAATAA, the binding signal (normalized occupancy) was determined as 0.081.

In the case of ATGACGTA, the binding signal (normalized occupancy) was 0.0763.

As for AATATCGC, the binding signal (normalized occupancy) was 0.0767.

Consider CTCCAATA, for which the binding signal (normalized occupancy) is 0.075.

ATGCCCAA: the binding signal (normalized occupancy) was 0.0859.

As for GACTTTAA, the binding signal (normalized occupancy) turned out to be 0.0719.

On to AACGACAC, for which the binding signal (normalized occupancy) turned out to be 0.0763.

Turning to CACGCGAA, the binding signal (normalized occupancy) is 0.105.

Take AGTCCATC: the binding signal (normalized occupancy) worked out at 0.0722.

For AGTATATC, the binding signal (normalized occupancy) is 0.0765.

Consider GAGAAACA, for which the binding signal (normalized occupancy) turned out to be 0.0796.

Turning to AATTTCGT, the binding signal (normalized occupancy) turned out to be 0.0735.

In the case of GCGACGCA, the binding signal (normalized occupancy) was determined as 0.0736.

On to TCGTCCCA, for which the binding signal (normalized occupancy) stood at 0.0727.

With CAAACTTC, the binding signal (normalized occupancy) was 0.0697.

Turning to TCGGAAAA, the binding signal (normalized occupancy) was 0.0713.

With AATGGGAC, the binding signal (normalized occupancy) came to 0.0778.

As to AAGGAATT, the binding signal (normalized occupancy) came out at 0.072.

For the sequence CTTGGAAC, the binding signal (normalized occupancy) was 0.0691.

As for ACCGTAAT, the binding signal (normalized occupancy) was 0.0701.

For the sequence ATTGCGGC, the binding signal (normalized occupancy) was 0.0715.

On to CCGTTACG, for which the binding signal (normalized occupancy) stood at 0.0706.

Regarding CTGGGATA, the binding signal (normalized occupancy) worked out at 0.077.

As to TATGTCGA, the binding signal (normalized occupancy) was 0.0802.

Turning to CGCCGAAG, the binding signal (normalized occupancy) amounted to 0.0696.

With TGGAGAAA, the binding signal (normalized occupancy) is 0.0767.

Consider CCATATGC, for which the binding signal (normalized occupancy) was determined as 0.1.

AGCCTGTA: the binding signal (normalized occupancy) is 0.073.

Turning to GAGTGTCC, the binding signal (normalized occupancy) turned out to be 0.0728.

On to CATGCCTA, for which the binding signal (normalized occupancy) stood at 0.0918.

Regarding AGGTACCT, the binding signal (normalized occupancy) is 0.0705.

For AGCTTGAT, the binding signal (normalized occupancy) turned out to be 0.0729.

Consider GTGAGCAA, for which the binding signal (normalized occupancy) was 0.0762.

In the case of CGATCGAA, the binding signal (normalized occupancy) came to 0.0684.

Regarding AACTGACC, the binding signal (normalized occupancy) worked out at 0.0708.

As to AAAAAAAT, the binding signal (normalized occupancy) turned out to be 0.0756.

Take CTATCCGC: the binding signal (normalized occupancy) came out at 0.0705.

With AGCCAGTC, the binding signal (normalized occupancy) turned out to be 0.0711.

Regarding CCGCTATA, the binding signal (normalized occupancy) was determined as 0.0813.

On to CCACAACC, for which the binding signal (normalized occupancy) was determined as 0.0815.

Consider ACCGTAGA, for which the binding signal (normalized occupancy) came to 0.0703.

For the sequence ATGTCGTA, the binding signal (normalized occupancy) amounted to 0.0818.

Take ATGAGTGA: the binding signal (normalized occupancy) stood at 0.0795.

Take CGCGTATC: the binding signal (normalized occupancy) came out at 0.0798.

In the case of GGTTGCTA, the binding signal (normalized occupancy) stood at 0.0758.

Regarding ACTACTGC, the binding signal (normalized occupancy) was determined as 0.0761.

CGGAGTAC: the binding signal (normalized occupancy) came out at 0.0711.

In the case of CTGTGGCC, the binding signal (normalized occupancy) came out at 0.0788.

In the case of ATACTTCG, the binding signal (normalized occupancy) was 0.0717.

As to ACCTCCTA, the binding signal (normalized occupancy) worked out at 0.0765.

Regarding AATAGCCG, the binding signal (normalized occupancy) came out at 0.0715.

As for AAACATCC, the binding signal (normalized occupancy) was 0.0762.

For the sequence CGAGGTAC, the binding signal (normalized occupancy) came to 0.0727.

As for CCGGGACA, the binding signal (normalized occupancy) is 0.0695.

CAATAGTG: the binding signal (normalized occupancy) is 0.0777.

GGGGGGAC: the binding signal (normalized occupancy) was determined as 0.0757.

Consider CAGTTTCC, for which the binding signal (normalized occupancy) was found to be 0.0694.

Regarding CAACCTGG, the binding signal (normalized occupancy) was determined as 0.0757.

For the sequence ACTGAACA, the binding signal (normalized occupancy) was found to be 0.0759.

Consider GACTAATA, for which the binding signal (normalized occupancy) was 0.0769.

With AGTTATCA, the binding signal (normalized occupancy) is 0.0747.

With ACCATGCC, the binding signal (normalized occupancy) is 0.0954.

Take CTACTGTA: the binding signal (normalized occupancy) is 0.0728.

Take TACCAAGA: the binding signal (normalized occupancy) was 0.0763.

On to CGGGAGTC, for which the binding signal (normalized occupancy) came to 0.0726.

As for CCCATTTA, the binding signal (normalized occupancy) came to 0.0761.

Take CTGTCGTC: the binding signal (normalized occupancy) turned out to be 0.0717.

With ACTATAAA, the binding signal (normalized occupancy) came out at 0.0823.

For AACCTGGA, the binding signal (normalized occupancy) turned out to be 0.0744.

For ATAGCGAG, the binding signal (normalized occupancy) turned out to be 0.0712.

As for AGACGTCT, the binding signal (normalized occupancy) turned out to be 0.0713.

Consider AGCTTTTG, for which the binding signal (normalized occupancy) was 0.0679.

For CGGCTTAC, the binding signal (normalized occupancy) stood at 0.0688.

Turning to TCCACCAA, the binding signal (normalized occupancy) came out at 0.0719.

For the sequence AAGTAGGA, the binding signal (normalized occupancy) came to 0.0726.

AGTGGCTG: the binding signal (normalized occupancy) worked out at 0.0673.

As to GCAGTCAA, the binding signal (normalized occupancy) turned out to be 0.0712.

Take GCCTCTCC: the binding signal (normalized occupancy) came to 0.076.

Turning to ACCCTTGC, the binding signal (normalized occupancy) was found to be 0.0725.

Take ATCATGTC: the binding signal (normalized occupancy) turned out to be 0.0895.

Consider CTTGGGTC, for which the binding signal (normalized occupancy) is 0.071.

Consider AGATTATC, for which the binding signal (normalized occupancy) stood at 0.0807.

CTCTCGGC: the binding signal (normalized occupancy) was determined as 0.0656.

Take CAATGTTC: the binding signal (normalized occupancy) worked out at 0.0701.

Take CTAGAACA: the binding signal (normalized occupancy) was found to be 0.0739.

With GACTACAC, the binding signal (normalized occupancy) stood at 0.0821.

Consider CGATGATA, for which the binding signal (normalized occupancy) turned out to be 0.0772.

On to GATAAGGC, for which the binding signal (normalized occupancy) worked out at 0.075.

In the case of CGAACACG, the binding signal (normalized occupancy) was 0.0839.

Consider ATTTAGTC, for which the binding signal (normalized occupancy) stood at 0.0723.

As for TGTTTCAA, the binding signal (normalized occupancy) was 0.0773.

In the case of CAGGTTGG, the binding signal (normalized occupancy) is 0.0748.

Consider GCCGCAGC, for which the binding signal (normalized occupancy) amounted to 0.0725.

In the case of ACATGACA, the binding signal (normalized occupancy) amounted to 0.089.

Turning to CAGGGCGG, the binding signal (normalized occupancy) was 0.0698.

As to GTGCGCCA, the binding signal (normalized occupancy) came out at 0.0809.

GAAGGACA: the binding signal (normalized occupancy) was found to be 0.0761.

With GATGTCTA, the binding signal (normalized occupancy) was 0.0731.

On to AGGGATTA, for which the binding signal (normalized occupancy) is 0.0762.

As to GCCCAAAC, the binding signal (normalized occupancy) is 0.0713.

As to TCCCATCA, the binding signal (normalized occupancy) was found to be 0.0825.

On to CACCACAC, for which the binding signal (normalized occupancy) was found to be 0.0898.

TGAATTAA: the binding signal (normalized occupancy) was determined as 0.0789.

With CCCAACGC, the binding signal (normalized occupancy) worked out at 0.0789.

Turning to ACTATCTA, the binding signal (normalized occupancy) was determined as 0.0759.

As to GACGACCA, the binding signal (normalized occupancy) came to 0.0733.

In the case of ACTAAGAG, the binding signal (normalized occupancy) turned out to be 0.0737.

For AGTCACTC, the binding signal (normalized occupancy) came out at 0.0739.

AGGTTTCG: the binding signal (normalized occupancy) came out at 0.0742.

Turning to TAGCGTAA, the binding signal (normalized occupancy) worked out at 0.0706.
